Where a chain is given by its changes, count along the chain named. Numbers in names are those of the source.

This is an account of results in publication PMC12069442.

Substrate in the data set: O=C1Cc2cc(CCN3CCN(c4nsc5ccccc45)CC3)c(Cl)cc2N1
As to the kind of experiment: not read. The settings on record: 20 min.

The mark [1] stands for this setting: other: CYP3A4.32, ziprasidone 0.1–25 μM.
[2] abbreviates: other: CYP3A4.3, ziprasidone 0.1–25 μM.
The mark [3] stands for this setting: other: CYP3A4.10, ziprasidone 0.1–25 μM.
Where [4] appears, read: other: CYP3A4.8, ziprasidone 0.1–25 μM.
[5] abbreviates: other: CYP3A4.12, ziprasidone 0.1–25 μM.
The mark [6] stands for this setting: other: CYP3A4.34, ziprasidone 0.1–25 μM.
The mark [7] stands for this setting: other: CYP3A4.5, ziprasidone 0.1–25 μM.
Setting [8] is: other: CYP3A4.1, ziprasidone 0.1–25 μM.
Setting [9] is: other: CYP3A4.9, ziprasidone 0.1–25 μM.
The mark [10] stands for this setting: other: CYP3A4.33, ziprasidone 0.1–25 μM.

B1: CYP3A4.32 (Homo sapiens; I335T) (protein)
chain: MALIPDLAMETWLLLAVSLVLLYLYGTHSHGLFKKLGIPGPTPLPFLGNILSYHKGFCMFDMECHKKYGKVWGFYDGQQPVLAITDPDMIKTVLVKECYSVFTNRRPFGPVGFMKSAISIAEDEEWKRLRSLLSPTFTSGKLKEMVPIIAQYGDVLVRNLRREAETGKPVTLKDVFGAYSMDVITSTSFGVNIDSLNNPQDPFVENTKKLLRFDFLDPFFLSITVFPFLIPILEVLNICVFPREVTNFLRKSVKRMKESRLEDTQKHRVDFLQLMIDSQNSKETESHKALSDLELVAQSIIFIFAGYETTSSVLSFIMYELATHPDVQQKLQEETDAVLPNKAPPTYDTVLQMEYLDMVVNETLRLFPIAMRLERVCKKDVEINGMFIPKGVVVMIPSYALHRDPKYWTEPEKFLPERFSKKNKDNIDPYIYTPFGSGPRNCIGMRFALMNMKLALIRVLQNFSFKPCKETQIPLKLSLGGLLQPEKPVVLKVESRDGTVSGA
Broadly, the Km is the concentration of substrate that gives half-maximal velocity. The kcat is the maximal rate divided by the concentration of active sites. In the case of B1, under setting [1], the Km came out at 2.87 ± 0.82 µM and the kcat was 0.352 ± 0.0208 s⁻¹.

B2: CYP3A4.3 (Homo sapiens; M445T) (protein)
chain: B1 chain with T335I, M445T
B2: under setting [2], the Km was 2.46 ± 0.85 µM and the kcat was 0.377 ± 0.111 s⁻¹.

B3: CYP3A4.10 (Homo sapiens; D174H) (protein)
chain: B1 chain with D174H, T335I
Turning to B3, under setting [3], the Michaelis constant (Km) was found to be 3.59 ± 0.12 µM and the kcat was determined as 0.271 ± 0.0252 s⁻¹.

B4: CYP3A4.8 (Homo sapiens; R130Q) (protein)
chain: B1 chain with R130Q, T335I
For the protein B4, under setting [4], the Km was 1.15 ± 0.20 µM and the kcat came to 0.109 ± 0.0132 s⁻¹.

B5: CYP3A4.12 (Homo sapiens; L373F) (protein)
chain: B1 chain with T335I, L373F
Take B5: under setting [5], the Km was 0.79 ± 0.17 µM and the kcat turned out to be 0.0738 ± 0.005 s⁻¹.

B6: CYP3A4.34 (Homo sapiens; I427V) (protein)
chain: B1 chain with T335I, I427V
For B6, under setting [6], the Km stood at 2.30 ± 0.58 µM and the kcat amounted to 0.174 ± 0.0203 s⁻¹.

B7: CYP3A4.5 (Homo sapiens; P218R) (protein)
chain: B1 chain with P218R, T335I
For the protein B7, under setting [7], the Km was found to be 5.80 ± 3.19 µM and the kcat is 0.431 ± 0.189 s⁻¹.

B8: CYP3A4.1 (Homo sapiens) (protein)
chain: B1 chain with T335I
With B8, under setting [8], the Km was determined as 5.04 ± 1.96 µM and the kcat came to 0.483 ± 0.076 s⁻¹.

B9: CYP3A4.9 (Homo sapiens; V170I) (protein)
chain: B1 chain with V170I, T335I
As to B9, under setting [9], the Km worked out at 1.16 ± 0.17 µM and the kcat stood at 0.152 ± 0.0205 s⁻¹.

B10: CYP3A4.33 (Homo sapiens; A370S) (protein)
chain: B1 chain with T335I, A370S
As for B10, under setting [10], the Km came to 2.36 ± 0.42 µM and the kcat was 0.577 ± 0.0767 s⁻¹.
